Source: PubChem BioAssay AID488969 (Vanderbilt High Throughput Screening Facility, 2010)
In all, about 110,000 compounds were measured (“z-score”: median about -0.1, highest 2% from about 2 on). This is one part of the list. The source made the active and inactive calls.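 Rule for the calls: active = z-score in the third read window above 3 or below -3; inactive = the rest.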

molecular target: Metabotropic glutamate receptor 8 (Rattus norvegicus) (UniProt P70579); assay: mGluR8 Gi/Go-coupled signaling modulation – cell-based, rat, thallium flux, HTS, primary screen (AID 488969); details: HEK293 rat mGluR8, GIRK (G protein-gated inwardly rectifying potassium channel) thallium flux, FluoZin2; at 10 µM; stronger effect = higher value; submaximal glutamate (EC20) added with thallium
Chain of UniProt P70579 (P70579 whole entry, looked up): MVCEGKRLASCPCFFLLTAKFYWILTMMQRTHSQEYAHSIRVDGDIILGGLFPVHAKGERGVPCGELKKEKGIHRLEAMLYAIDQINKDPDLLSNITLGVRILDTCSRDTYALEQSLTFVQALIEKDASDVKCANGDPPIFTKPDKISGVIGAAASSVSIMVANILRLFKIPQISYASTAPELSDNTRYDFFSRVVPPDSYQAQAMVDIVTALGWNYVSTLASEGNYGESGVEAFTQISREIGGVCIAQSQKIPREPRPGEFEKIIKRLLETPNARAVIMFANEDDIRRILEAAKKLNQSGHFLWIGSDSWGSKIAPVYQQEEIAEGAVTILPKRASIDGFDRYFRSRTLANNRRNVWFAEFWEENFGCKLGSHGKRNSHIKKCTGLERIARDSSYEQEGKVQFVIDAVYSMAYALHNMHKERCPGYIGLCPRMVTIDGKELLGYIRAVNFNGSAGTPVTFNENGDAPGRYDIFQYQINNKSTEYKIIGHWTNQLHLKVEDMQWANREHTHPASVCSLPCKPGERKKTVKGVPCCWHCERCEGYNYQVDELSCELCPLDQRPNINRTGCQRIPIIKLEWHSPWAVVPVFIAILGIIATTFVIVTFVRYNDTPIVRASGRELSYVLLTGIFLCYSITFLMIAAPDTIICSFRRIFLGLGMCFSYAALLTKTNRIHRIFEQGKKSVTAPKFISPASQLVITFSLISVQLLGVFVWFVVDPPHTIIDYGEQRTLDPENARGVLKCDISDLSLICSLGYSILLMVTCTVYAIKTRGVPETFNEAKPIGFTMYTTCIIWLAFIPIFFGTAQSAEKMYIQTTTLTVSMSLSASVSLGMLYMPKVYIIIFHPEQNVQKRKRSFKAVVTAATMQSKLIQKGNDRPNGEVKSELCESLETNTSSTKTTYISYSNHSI

Structure (SMILES) | z-score
CCNC(=O)NC(=O)C(C)OC(=O)C1CCN(S(=O)(=O)c2ccccc2F)CC1 (stereo unspecified) | -0.363
Brc1ccc(C2C3=C(Nc4ncnn42)c2ccccc2OC3c2ccncc2)cc1 (stereo unspecified) | -1.24
Cc1ccc(Nc2nc(-c3c(C)n(C)n(-c4ccccc4)c3=O)c(C)s2)cc1 | -0.615
CCN1C(=O)S/C(=C/c2ccsc2)C1=O | 0.669
Cc1cc(C(=O)NC(C)C)on1 | 0.124
Cn1c(=O)c(=O)n(C)c2cc(S(=O)(=O)N3CCc4ccccc43)ccc21 | 0.0327
Cc1cccc(NC(=O)c2ccoc2C)n1 | 2.35
COc1ccc(-n2c(SCc3ccc(C#N)cc3)nnc2-c2ccccn2)cc1 | 0.181
COc1ccc(Nc2ccc(Cl)cc2)c(C(=O)O)c1 | -0.637
N#Cc1c(C(F)(F)F)cc(-c2ccco2)nc1SCc1ccccn1 | -0.0872
CCOC(=O)CCCSc1nnc(CCCCCN2C(=O)c3cccc4cccc(c34)C2=O)o1 | -1.11
COc1ccc(S(=O)(=O)N2CC(O)CC2C(=O)OCC(=O)Nc2ccc(Cl)cn2)cc1 (stereo unspecified) | 0.891
COc1ccccc1CNC(=O)c1cnccn1 | -0.181
COc1ccc(OCC(O)CN(CCO)CC(O)Cn2ccc3ccccc32)cc1 (stereo unspecified) | -0.128
CCn1c(SCC(=O)N/N=C/c2ccc(C)o2)nnc1-c1ccccc1 | 0.156
Cc1ccc(S(=O)(=O)N(C)C)cc1NC(=S)NC12CC3CC(CC(C3)C1)C2 | 0.0243
COc1ccc(-c2nc(=S)c3c([nH]2)Oc2ccc(C)cc2C3)cc1O | 0.755
COc1ccc(CN(Cc2cccnc2)C(=S)NCCc2ccccc2)cc1OC | -1.03
Cc1cc(C(=O)NC(C)c2ccncc2)cs1 (stereo unspecified) | 2.05
O=C(Nc1cccc2ccccc12)c1ccc(OC(=S)N2CCOCC2)cc1 | -0.204
COc1ccc(OC)c(NC(=O)C2CCN(S(C)(=O)=O)CC2)c1 | -0.441
c1ccc2c(c1)nc(NC1CCCCC1)c1nncn12 | 0.0884
Cc1cccc(Oc2ccc(N)cc2)c1 | -0.0211
N#C/C(=C\c1sc(N2CCOCC2)nc1-c1ccccc1)C(=O)Nc1cccc2ccccc12 | active: -3.04

Structure (SMILES) | z-score
C=CCn1c(SCc2nnc(-c3ccccc3)o2)nnc1C(O)c1ccccc1 (stereo unspecified) | 0.141
Nc1nc(NCCCN2CCOCC2)nc(Nc2ccc(F)cc2)c1[N+](=O)[O-] | -0.105
CNCc1cn2cc(Cl)ccc2n1 | -0.33
Cn1c(=O)c2c(nc(Br)n2CCSc2ncccn2)n(C)c1=O | -0.0624
C=CCOc1c2ccc(C(=O)NC3CCCc4ccccc43)cc2nn1C (stereo unspecified) | -0.212
COc1ccc(CCNC(=O)C2CCN(C(=O)N(C)C)CC2)cc1OC | 0.665
Cc1ccccc1NC(=O)CSCCO | 0.29
COc1ccccc1-c1coc2cc(O)cc(O)c2c1=O | -0.515
COCCN(C(=O)CSc1nnc(C)n1-c1ccccc1)c1c(N)n(Cc2ccccc2)c(=O)[nH]c1=O | -0.00751
O=C(c1cc(-c2cccs2)on1)N1CCN(c2ccccc2)CC1 | -0.51
CCOC(=O)c1c2ccc(OCC(=O)N/N=C/c3ccc(C)cc3)cc2n2ccccc12 | -0.78
CC(C)(C)OC(=O)N1CCC(c2cc(=O)n3[nH]cc(C(=O)NC4CCCC4)c3n2)CC1 | 0.106
Cc1ccc(-c2n[nH]c3c2CCC3)cc1 | -0.294
Cn1c(NC(=O)c2cc(Cl)ccc2Cl)cc(=O)n(C)c1=O | 0.0537
O=C(C1CC1)N1CCc2cc(S(=O)(=O)NCCC3=CCCCC3)ccc21 | -0.325
CCCOc1ccc(C(=O)N2CCN(c3ccc(N)cc3Cl)CC2)cc1 | -0.235
COc1ccc(CNc2nc(NCc3ccc(OC)cc3)n(C(=O)c3ccccc3[N+](=O)[O-])n2)cc1 | -0.0563
C=CCN(CC=C)C(=O)Nc1cc(Cl)ccc1OC | -0.919
Cc1ccc(C(=O)NCCN2CCOCC2)cc1 | -0.0596
COC(=O)c1ccc(COC(=O)c2c(C)nn(Cc3ccccc3Cl)c2Cl)o1 | -0.729
Cc1ccc(-n2nnnc2SCC(=O)N2CCc3ccccc3C2)cc1 | -0.883
CCOc1ccc(N/C=C/C(=O)c2ccccc2)c([N+](=O)[O-])c1 | -0.186
Cc1ccc(S(=O)(=O)NC(=O)Nc2ccccc2F)cc1 | 0.149
CCCSc1nc(N)nc(-c2cccs2)c1C#N | -0.712

Structure (SMILES) | z-score
CCOC(=O)c1sc(N)c(C#N)c1COC(=O)CNC(=O)c1cc(OC)c(OC)c(OC)c1 | -1.23
CCn1c(C(=O)OC)cc2c1ccn2-c1ccc(F)cc1 | 0.12
Cc1cccc(N(CC(=O)NC2CCCC2)C(=O)c2c(C)noc2C)c1 | 0.0556
O=C(O)C1CCCCC1C(=O)NCc1cn2ccccc2n1 (stereo unspecified) | -0.352
Cc1ccc(NC(=O)Cn2cccc2C2=NC(c3ccccc3)CO2)cc1C (stereo unspecified) | -0.458
CCOC(=O)C1C(=O)NC(SCC(=O)Nc2nccs2)=C(C#N)C1c1ccccc1OCC (stereo unspecified) | -1.14
COCCn1c(SCc2nnc(-c3ccccc3)o2)nc2sc3c(c2c1=O)CCC3 | -1.02
CCN(CC)S(=O)(=O)c1cc(C)c(C)cc1Br | 0.329
CCn1c(=O)c(C(=O)Nc2ccsc2C(=O)OC)c(O)c2ccccc21 | -0.168
Cc1cc(C)c(C#N)c(N2CCCC(C(N)=O)C2)n1 (stereo unspecified) | -0.414
CCCCn1c(=O)cc(N2CCOCC2)[nH]c1=O | -0.607
CCOC(=O)N1CCc2c(sc3nc4n(c(=O)c23)N=C(C)CS4)C1 | -0.131
O=S(=O)(NCCn1ccc2ccccc21)c1ccccc1 | 0.0225
CSCCC(NC(N)=O)C(=O)NCc1cccc(Cl)c1 (stereo unspecified) | -0.285
Cn1c(CNc2ccc(Cl)cc2)nnc1SCc1ccccc1 | -0.839
CSc1c(-c2ccccc2)nc2ccc(Cl)cc2c1C(=O)O | -0.78
Cc1ccc(NC(=O)CSc2nnc(-c3n[nH]c4ccccc34)n2-c2ccccc2)c(C)c1 | -0.139
COc1ccc(-c2[nH]ncc2-c2ccc(Cl)cc2)c(O)c1 | 1.54
CCOc1ccc(C2C(C(=O)c3ccc(C)o3)=C(O)C(=O)N2CCN2CCOCC2)cc1OC (stereo unspecified) | 0.446
CCOc1ccc(-c2cc(C(=O)Nc3ccc4c(c3)OCCO4)c3ccccc3n2)cc1 | -0.168
COc1ccccc1CCNS(=O)(=O)c1c(C)n(C)c(=O)n(C)c1=O | -0.106
CCOC(=O)c1ccc(NCc2nc3ccccc3[nH]2)cc1 | 0.255
CN(CC(O)COc1ccc(S(=O)(=O)N2CCOCC2)cc1)C1CCCCC1 (stereo unspecified) | 0.287
